# ± gives the standard deviation. Over roughly 3,700 sequences, “pre-steady-state target cleavage rate” has its median near 0.02; the highest 2% begin near 0.23. This is a selection; strong and weak results do not stand in their true shares.
# System: MILI (PIWIL2) piRISC loaded with Kctd7 piRNA (26 nt)
# Experiment: pre-steady-state target cleavage rate (min^-1); MIWI and MILI are mouse PIWI proteins and EfPiwi is from a freshwater sponge; tags in brackets are library labels; higher = faster piRNA-guided slicing of the target
# Conditions: guide: Kctd7 piRNA 5'p-UGUUAAUCUCUCAGAGAAGGUGACAG; auxiliary factor: 500 nM mouse GTSF1
# Outline: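 In this Cleave-'n-Seq assay, uncleaved targets were sequenced and normalised to depth and to weakly complementary targets. They came from a transcribed, DNA-blocked target RNA library […] mixed with 1 nM active affinity-purified piRISC carrying one synthetic guide, with or without 500 nM GTSF1 partner protein, in HEPES–potassium acetate buffer at 33 °C for 0–8 or 0–960 min. After three trials were pooled and k3 was capped at 0.0001 min^-1, the pre-steady-state cleavage rate was obtained from a burst-and-steady-state fit.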
# 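Further: 1 nM active piRISC with 0.1 nM target library at 33 °C single turnover.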
row,Sequence,pre-steady-state target cleavage rate
1,UAGUGACAGUGGAACUCUGAGAGAUUAUGA,< 0.0001
2,UAGUGACAGUCCUUCUCUCUCUCUAAUUGA [g13:g20:cont:t1A],< 0.0001
3,UAGUGACAGUGCUUCACUGAGAGAUUUACA,0.0125 ± 0.0064
4,UAGUGACAGUCGUUCUCUGAGAGUUUAACA,0.00649 ± 0.0029
5,UAGUCUGUCACCUUCUCAGAGAGAUUAUCA,0.153 ± 0.034
6,UAGUGACUCACCUUCUCUGAGAGAUAUAACA,0.141 ± 0.017
7,UAGUGACAGUCCUUCUCAGACAGAUUAACA,0.00382 ± 0.0027
8,UAGUGACACACCUUCUGUGAGAGAUUAACA,0.142 ± 0.017
9,UAGUGACACACCUUCUCUCAGAGAUUAAGA,0.00667 ± 0.0052
10,UAGUGACACACCUUCUCUGAGGAGAUUAACA,0.00946 ± 0.0049
11,UAGUGACUCAUCUUCUCUGAGAGAUUAACA,0.189 ± 0.013
12,UAGUGACAGUGGUUCUCUGAGAGAUUAAUA,0.00332 ± 0.0022
13,UAGUGAGUCACCUUCACAGAGAGAUUAACA,0.0664 ± 0.0081
14,UAGUGAGUCACCUCUCUGAGAGAUUAACA,0.142 ± 0.015
15,UAGUGAGUCACCUUCUCUGAGAGAUCAACA,0.0788 ± 0.025
16,UAGUGUGUCACCUACUCUGAGAGUUUAACA,0.129 ± 0.032
17,UAGUCUGUCACCUACUCUGACAGAUUAACA,0.00422 ± 0.0035
18,UAGUGACACACCUUCACUGUGAGAUUAACA,0.0574 ± 0.0084
19,UAGUGUGUCACCUUCUGAGAGAGAUUAUGA,0.0125 ± 0.0063
20,UAGUCUGUCACCUUCUGUGAGAGAUUAACA,0.0887 ± 0.01
21,UAGUGACAGACCUUCCCUGAGAGAUUAACA,0.0627 ± 0.018
22,UAGUGAGUCACCUUCUGUGAGAGUUUAACA,0.0738 ± 0.017
23,UAGUGACACUGGUUCUCUGAGAGAUUAAGA,0.0538 ± 0.012
24,UAGUGACUCACCUUCUCUGAGAGAUUAACA [g2:g23:cont:t1A],0.173 ± 0.011

row,Sequence,pre-steady-state target cleavage rate
1,UAGUCUGUCACCUUCACUCAGAGAUUAACA,0.0272 ± 0.0086
2,UAGUGUGUCACCUUGUCUGAGUGAUUAACA,0.00503 ± 0.0039
3,UAGUGAGUCACCUACUCUCAGAGAUUAACA,0.0282 ± 0.008
4,UAGUGUGUCACCAUCUCUGAGAGUUUAACA,0.172 ± 0.047
5,UAGUGAGUCACCUUGUCUGAGAGAUUAACA,0.0975 ± 0.011
6,UAGUGACAGUGGAAGACAGAGAGAUAAACA,< 0.0001
7,UAGUGACAGACCAUGUCUGAGAGAUUAACA,0.0379 ± 0.0095
8,UAGUGAGUCAGCUUGUCUGAGAGAUUAACA,0.149 ± 0.01
9,UAGUGACACACCUUCUCUGAGAGAUUAACCA,0.144 ± 0.01
10,UAGUGAGUGAGCUUCUCUGAGAGAUUAACA,0.0803 ± 0.011
11,UAGUGAGUCACCUUCUCUGAGAGAUUAUCA,0.197 ± 0.037
12,UAGUGUGUCACCUUCUCUGAGAGAUUAGACA,0.0316 ± 0.0099
13,UAGUGACUCACCUUCGCUGAGAGAUUAACA,0.066 ± 0.013
14,UAGUGACACACCCUCUCUGAGAGAUUAACA,0.16 ± 0.013
15,UAGUGACAGACCUUCUCUGAGAGAUUAGCA,0.0252 ± 0.013
16,UAGUGUGUCACGUACUCUGAGAGAUUAACA,0.0968 ± 0.0082
17,UAGUGACUCACCUUCUGAGAGAGAUUAAGA,0.0126 ± 0.0045
18,UAGUGUGUGUCCUUCUCUGAGAGAUUAACA,0.0982 ± 0.015
19,UAGUGACACACCAUCUCUGUGAGAUUAACA,0.0449 ± 0.0061
20,UAGUGAGUCACCUUCAGUGAGAGAUUAUGA,0.0138 ± 0.0063
21,UAGUGACAGUGCUUCUCUGAGAGAUAUAACA,0.0429 ± 0.0084
22,UAGUGACAGUGGUUCUCUGUGAGAUUAACA,0.0049 ± 0.0014
23,UAGUGACAGUGGAAGAGAGAGAGAUUACACA,< 0.0001
24,UAGUGACAGACCUUCUCUGCAGAGAUUAACA,< 0.0001

row,Sequence,pre-steady-state target cleavage rate
1,UAGUGUGUCGACCUUCUCUGAGAGAUUAACA,0.0942 ± 0.0089
2,UAGUGAGUCACCUUCACUGUGAGAUUAACA,0.048 ± 0.0052
3,UAGUGAGUCACCUUCUCUGAGAGUUUUACA,0.257 ± 0.078
4,UAGUGACAGUGGAAGAGUGAGACAUUAACA,< 0.0001
5,UAGUGACAGUGCUUCUCUGAGAGAUUGACA,0.0242 ± 0.0055
6,UAGUGACACACCUUCUCUGAGACAUUUUGA,< 0.0001
7,UAGUGACAGAGGAUCUCUGAGAGAUUAUGA,< 0.0001
8,UAGUGAGUCACGUUCUCUGAGAGAAUAACA,0.0637 ± 0.021
9,UAGUGACAGUGCUUCUCUGAGAGAUUAUACA,0.00876 ± 0.0033
10,UAGUGAGUCACGUUCUCUGAGAGAUUAAGA,0.084 ± 0.018
11,UAGUGACUCACCGUCUCUGAGAGAUUAACA,0.132 ± 0.011
12,UAGUGACAGACCUUCUCAGAGAGUUUAACA,0.0085 ± 0.006
13,UAGUGUGUCACCUUGUCUGAGAGAUUAUCA,0.056 ± 0.019
14,UAGUGACUCACCUUCUCAGAGAGAUAAACA,0.0433 ± 0.011
15,UAGUGACAGUGCGUUCUCUGAGAGAUUAACA,0.0351 ± 0.0071
16,UAGUGACAGUCCUUCUCAGAGAGAUAAACA,0.0045 ± 0.0034
17,UAGUCUCAGACCUUCUCUGAGAGAUUAACA,0.114 ± 0.013
18,UAGUGUGACACCUUGUCUGAGAGAUUAACA,0.0749 ± 0.011
19,UAGUGAGUCACCUUCUCUGAGUAGAUUAACA,0.013 ± 0.0068
20,UAGUCUGUCACCUUCUCUGAGAGAUUAAGA,0.125 ± 0.027
21,UAGUGACAGACCAACUCUGAGAGAUUUUGA,< 0.0001
22,UAGUGUGUCACCUUCUAUGAGAGAUUAACA,0.0956 ± 0.016
23,UAGUGACACACCUUCUCUGAGAGACUAACA,0.154 ± 0.024
24,UAGUGUGUCACGAACUCUGAGAGAUUAAGA,0.0138 ± 0.0036

# Reference: the supplement of paper PMC10338343
